Experimental data published in a compilation of properties of binary mixtures (doi:10.1007/s10973-023-12194-1).
The densities may have been worked out from excess volumes.

Experiment: xn = mol fraction of the nth substance listed
Conditions: 101.3 kPa

CCCC[NH3+].O=[N+]([O-])[O-] + O
x2 = 0.435
Conditions | mass density [kg/m3]
288.15 K | 1107.2
318.15 K | 1088.3
323.15 K | 1085.2
328.15 K | 1082.1
333.15 K | 1079
338.15 K | 1075.9
343.15 K | 1072.8
348.15 K | 1069.7
353.15 K | 1066.6
358.15 K | 1063.5
363.15 K | 1060.5
368.15 K | 1057.4
373.15 K | 1054.4

CC[NH3+].O=[N+]([O-])[O-] + O
x2 = 0.574
Conditions | mass density [kg/m3]
288.15 K | 1180.7
293.15 K | 1177.5
298.15 K | 1174.2
313.15 K | 1164.6
318.15 K | 1161.4
323.15 K | 1158.2
333.15 K | 1151.8
338.15 K | 1148.6
348.15 K | 1142.1
353.15 K | 1138.9
358.15 K | 1135.7
363.15 K | 1132.5
368.15 K | 1129.3
373.15 K | 1125.9
